B1: TPR 5TU (parent)
chain: GGAUCUUCUCGAUCUAACAAAAAAGACAAAUCUGCCACAAAGCUUGAGAGCAUCUUCGGAUGCAGAGGCGGCAGCCUUCGGUGGCGCGAUAGCGCCAACGUUCUCAACUAUGACACGCAAAACGCGUGCUCCGUUGAAUGGAGUUUAUCAUG

Variants at the floor of the assay are shown more often than the library holds them.

Variants of B1 are the subject of the data set. The data set is described as follows: polymerase ribozyme fitness, log enrichment relative to wild type (log ratio); higher = more active; in vitro selection for triplet polymerase activity. An outline of the steps: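 Frozen incubation at −7 °C formed the core of a single, triplicate in vitro selection round applied to PCR-built, transcribed mutant libraries of each subunit of a heterodimeric triplet polymerase ribozyme. Extended constructs were gel-excised, captured with streptavidin beads and amplified by RT-PCR, and input and output libraries were Illumina-sequenced with a filter of ≥10 input reads and ≥1 read per output. Fitness is the logarithm of genotype enrichment relative to wild-type enrichment, with inverse-variance-weighted replicate averaging, and the logarithm is base 2.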
As for G83C U90C C95G, the “polymerase ribozyme fitness (log ratio)” value is not above -4.2. The value for C76G A115G A120U G143A was not above -4.2. The value for C79U C93U G140U was not above -4.2; that for A73G C93U G141U was 0.326.

Take C76G U90A C108G C125A G140U A142C: the “polymerase ribozyme fitness (log ratio)” value was not above -4.2. For G80A C85U G136A G143C the value was -1.57; for C79A U148A, not above -4.2.

Regarding U78G C85A G88U U90G, the “polymerase ribozyme fitness (log ratio)” value was not above -4.2. For G74U G84U G133C U145A the value was not above -4.2; for C79G A89U G141C, not above -4.2.

As for C75U A91G U104A U139A, the “polymerase ribozyme fitness (log ratio)” value is not above -4.2. The value for G83A G94A G117U G133A U135C was not above -4.2.

Regarding C79G A107C, the “polymerase ribozyme fitness (log ratio)” value was not above -4.2. The value for G83A C105A was -3.15. U78A A89C C93G C116U: the “polymerase ribozyme fitness (log ratio)” value was not above -4.2. The value for C79A G143U was not above -4.2. The value for A73U C93U G136A was -1.59.

Take A73U G86U: the “polymerase ribozyme fitness (log ratio)” value was -4.19. For the variant U78C C85U C103A G141U G152U, the “polymerase ribozyme fitness (log ratio)” value was not above -4.2. The value for C79G G83C C93U C123U G126A was not above -4.2; that for C76U C95A C96U U151G was not above -4.2. Consider G81C U139C, for which the “polymerase ribozyme fitness (log ratio)” value was not above -4.2. Regarding C75U U145C U146G, the “polymerase ribozyme fitness (log ratio)” value is -0.419. The value for C75A U82C C93U was not above -4.2; that for G74U U146A was not above -4.2; that for C75U C93U G143U was -3.61. For C75U U78C G84A the value was -1.65; for U82G A113G C125U, -3.28; for C75G U134G, -4. In the case of G81C G86A, the “polymerase ribozyme fitness (log ratio)” value was -1.83.

Turning to G83C G92A, the “polymerase ribozyme fitness (log ratio)” value was not above -4.2. U82A A91U: the “polymerase ribozyme fitness (log ratio)” value was not above -4.2. For the variant C76A G152U, the “polymerase ribozyme fitness (log ratio)” value was not above -4.2.

As for G74A C85U A98G C105U, the “polymerase ribozyme fitness (log ratio)” value is not above -4.2. For C79A C108U the value was -4.06; for C76G A97G, not above -4.2. Take U82G C87U U146C: the “polymerase ribozyme fitness (log ratio)” value is -0.959. With U78G C95U U139A, the “polymerase ribozyme fitness (log ratio)” value is not above -4.2. For A73G G84U, the “polymerase ribozyme fitness (log ratio)” value is -1.29. The value for U82G C99G was -0.787. As for A73G C125G G133A U146G, the “polymerase ribozyme fitness (log ratio)” value was not above -4.2. The value for C75U A91U C95A A107G C108A A119U was not above -4.2. Turning to G74U C105A A107C G136U, the “polymerase ribozyme fitness (log ratio)” value is not above -4.2. Take C79U G94C A119C: the “polymerase ribozyme fitness (log ratio)” value is not above -4.2. For A73G C85U G126U C131G the value was not above -4.2; for C76U G83A C105G, not above -4.2; for C76A C79G U104C, not above -4.2. With G83C A107C G140U, the “polymerase ribozyme fitness (log ratio)” value was not above -4.2. For G80C C96U the value was -3.79; for A73U A91U G140A, not above -4.2. Regarding C76G C79U C93U A110U U139G, the “polymerase ribozyme fitness (log ratio)” value is not above -4.2. For C76U U77A U78G U90G G94A C96A A97U the value was not above -4.2; for A73U G83C G143C, not above -4.2; for G80A G128U, -3.18. The value for G74U G84C C96A C99U G100C C108G was not above -4.2; that for U77A C87U A98C C103A C125U U135G was not above -4.2; that for C75U G83A C105G G128U U134A A138U G141U was not above -4.2.

With C76A A98U G100A, the “polymerase ribozyme fitness (log ratio)” value is not above -4.2. The value for C79U C85U A122C G140C was not above -4.2. The value for G80A A91C U130G G141U A142G was not above -4.2; that for G80C U145C was not above -4.2; that for C79A G83U G94C A120G was not above -4.2. The value for A73U G84A U144C was -1.83; that for C75U G88A C118U was not above -4.2; that for C76A C87A was not above -4.2. As for C75G C87A C105U, the “polymerase ribozyme fitness (log ratio)” value was not above -4.2. Regarding G80A C93U, the “polymerase ribozyme fitness (log ratio)” value is -1.6.

On to A73U C85U G143U, for which the “polymerase ribozyme fitness (log ratio)” value is not above -4.2.

Regarding U77C G84U A106C, the “polymerase ribozyme fitness (log ratio)” value was not above -4.2.

Consider G83C C125A G136U, for which the “polymerase ribozyme fitness (log ratio)” value is -2.54.

With C76G C99U, the “polymerase ribozyme fitness (log ratio)” value was not above -4.2. The value for C76U C87G was -3.96; that for G80U A138C was not above -4.2; that for C76A C85U U145C was -0.371. As for G80U U148C, the “polymerase ribozyme fitness (log ratio)” value was -3.38.

Regarding C75U G136C, the “polymerase ribozyme fitness (log ratio)” value was -2.6. The value for C79U C87G was -3.61; that for C75U G94C A142C was -2.58; that for C76G G81A was not above -4.2. Regarding U77G C87A G136A G140U, the “polymerase ribozyme fitness (log ratio)” value is not above -4.2.

For C75G G84U C131G U135A, the “polymerase ribozyme fitness (log ratio)” value was not above -4.2. The value for C75U A137C was -3.47. Take A73U A89C U90G A110U: the “polymerase ribozyme fitness (log ratio)” value is not above -4.2.

The record behind these values is the RNAGym collection of RNA variant scans (doi:10.1073/pnas.2313332121).
